# Structures can show the parent of a compound that is named as a salt. ± gives the standard deviation of the averaged measurements. Some of the results follow. Single values are uncertain, as repeats are few or missing.
# What was measured:
# Test in all cases: log2 surviving fraction relative to plate median (drug vs vehicle, or drug+dl922-947 vs dl922-947 alone); ovarian cancer lines: OVCAR4 is platinum-sensitive while Ov4Cis resists cisplatin and Ov4Carbo carboplatin; higher = more cell survival
# Conditions in all cases: compound concentration: 10 uM, 192 h
# [1] = test system: OVCAR4
# [2] = test system: Ov4Carbo
# [3] = test system: Ov4Cis
# [4] = dl922-947 oncolytic adenovirus co-treatment: MOI 10
# [5] = dl922-947 oncolytic adenovirus co-treatment: none
Structure (SMILES),"log2 surviving fraction [1, 4]","log2 surviving fraction [1, 5]","log2 surviving fraction [2, 4]","log2 surviving fraction [2, 5]","log2 surviving fraction [3, 4]","log2 surviving fraction [3, 5]"
C[C@H](Cc1cc2c(c(C(N)=O)c1)N(CCCO)CC2)NCCOc1ccccc1OCC(F)(F)F [Silodosin (Rapaflo)],-0.381 ± 0.14,-0.373 ± 0.37,-0.857,-0.351,-0.44,-0.557
CC(O)(P(=O)(O)O)P(=O)(O)O [Etidronate (Didronel)],0.177 ± 0.51,-0.277 ± 0.74,0.241,0.476,0.042,-0.0282
NC(=O)N/N=C/c1ccc([N+](=O)[O-])o1 [Nitrofurazone (Nitrofural)],-0.511 ± 1.4,0.381 ± 0.046,1.36,0.797,0.614,0.864
COC(=O)[C@H]1[C@H]2C[C@@H]3c4[nH]c5cc(OC)ccc5c4CCN3C[C@H]2C[C@@H](OC(=O)c2cc(OC)c(OC)c(OC)c2)[C@@H]1OC [Reserpine],-2.6 ± 1.4,-3 ± 0.63,-7.5,-6.55,-3.09,-3.06
CN(C)CCC=C1c2ccccc2CCc2ccccc21 [Amitriptyline HCl],-2.35 ± 0.56,-1.3 ± 1.3,-2.76,-0.422,-3.02,-2.96
CN(C)[C@@H]1C(O)=C(C(N)=O)C(=O)[C@@]2(O)C(O)=C3C(=O)c4c(O)ccc(Cl)c4[C@@](C)(O)[C@H]3C[C@@H]12 [Chlortetracycline HCl],0.529 ± 0.24,0.448 ± 0.12,0.862,0.00198,0.0943,0.454
CCCc1cc(=O)[nH]c(=S)[nH]1 [Propylthiouracil],0.761 ± 0.55,0.891 ± 0.14,-0.593,0.0743,1.15,-0.401
C#C[C@]1(OC(C)=O)CC[C@H]2[C@@H]3CCC4=C[C@@H](OC(C)=O)CC[C@@H]4[C@H]3CC[C@@]21C [Ethynodiol diacetate],0.0378 ± 0.51,-0.579 ± 0.57,0.377,-0.939,0.0363,-0.0201
Cc1cccc([C@H](C)c2c[nH]cn2)c1C [Dexmedetomidine HCl (Precedex)],-0.0574 ± 0.057,0.258 ± 0.047,-0.358,-0.0121,0.763,0.431
Cc1c(N(C)C)c(=O)n(-c2ccccc2)n1C [Amidopyrine],0.0441 ± 0.1,0.266 ± 0.38,-0.925,-1.02,0.272,-0.12
Cc1onc(-c2ccccc2Cl)c1C(=O)N[C@@H]1C(=O)N2[C@@H]1SC(C)(C)[C@@H]2C(=O)O [Cloxacillin sodium (Cloxacap)],0.969 ± 0.032,0.755 ± 0.58,1.78,-0.33,0.907,0.941
CO[C@H]1C[C@@H]2CC[C@@H](C)[C@@](O)(O2)C(=O)C(=O)N2CCCC[C@H]2C(=O)O[C@H]([C@H](C)C[C@@H]2CC[C@@H](O)[C@H](OC)C2)CC(=O)[C@H](C)/C=C(\C)[C@@H](O)[C@@H](OC)C(=O)[C@H](C)C[C@H](C)/C=C/C=C/C=C/1C [Rapamycin (Sirolimus)],-2.1 ± 0.6,-6.91 ± 2.6,-2.68,-6.9,-2.06,-6.45
CNC(=O)c1cc(Oc2ccc(NC(=O)Nc3ccc(Cl)c(C(F)(F)F)c3)cc2)ccn1 [Sorafenib (Nexavar)],-3.7 ± 1.2,-7.9 ± 1.3,-6.97,-9.85,-4.15,-11.7
Clc1ccc(CCC(Cn2ccnc2)Sc2c(Cl)cccc2Cl)cc1 (stereo unspecified) [Butoconazole nitrate],-0.538 ± 0.32,-1.9 ± 0.46,-0.734,-5.3,-0.667,-0.678
CC1=C(/C=C/C(C)=C/C=C/C(C)=C/C=C/C=C(C)/C=C/C=C(C)/C=C/C2=C(C)CCCC2(C)C)C(C)(C)CCC1 [Beta Carotene],0.966 ± 0.87,0.00348 ± 1.1,0.368,-0.699,-0.374,0.634
Clc1ccc2c(c1)C(N1CCNCC1)=Nc1ccccc1O2 [Amoxapine],-3.02 ± 0.99,-0.544 ± 0.54,-4,-1.33,-2.89,-1.24
C[C@@H](CN1CC(=O)NC(=O)C1)N1CC(=O)NC(=O)C1 [Dexrazoxane Hydrochloride],-0.118 ± 0.22,2.93 ± 3.4,0.896,0.654,0.289,0.144
Clc1ccc(C(Cn2ccnc2)OCc2ccc(Sc3ccccc3)cc2)c(Cl)c1 (stereo unspecified) [Fenticonazole nitrate],-2.1 ± 0.65,-2.69 ± 0.54,-2.17,-1.35,-2.04,-2.76
Nc1nc(NC2CC2)c2ncn([C@H]3C=C[C@@H](CO)C3)c2n1 [Abacavir sulfate],0.0147 ± 0.29,-0.0835 ± 0.35,4.09,0.602,-0.0817,-0.429
C[C@H](N[C@@H](CCc1ccccc1)C(=O)O)C(=O)N1CCC[C@H]1C(=O)O [Enalaprilat dihydrate],0.991 ± 0.43,0.0354 ± 0.15,0.0465,-1.22,0.0725,0.824
O=C(Oc1ccccc1C(=O)O)c1ccccc1O [Sasapyrine],0.146 ± 0.38,-0.387 ± 0.94,-0.051,0.125,0.633,-0.405

# From the supplement of paper PMC8813932
